Measurements from PMC9699427 (Viruses, 2022).

Assays:
HIV-1A17 = test: microbe, parasite or virus in culture; details: Human immunodeficiency virus 1, C8166, read-out: EC50 (Mean ± SD)
HIV-1RF/V82F/184V = test: microbe, parasite or virus in culture; details: Human immunodeficiency virus 1, C8166, read-out: EC50 (Mean ± SD)
HIV-1TC-1 = test: microbe, parasite or virus in culture; details: Human immunodeficiency virus 1, PBMC, read-out: EC50 (Mean ± SD)
pNL4-3GP41(36G)V38A,N42T = details: read-out: EC50 (Mean ± SD); pNL4-3GP41(36G)V38A,N42T (FI-resistant), C8166, p24
HIV-1WAN = test: microbe, parasite or virus in culture; details: Human immunodeficiency virus 1, PBMC, read-out: EC50 (Mean ± SD)
HIV-1_4755-5 = test: microbe, parasite or virus in culture; details: Human immunodeficiency virus 1, C8166, read-out: EC50 (Mean ± SD)
HIV-1IIIB = test: microbe, parasite or virus in culture; details: Human immunodeficiency virus 1, C8166, read-out: EC50 (Mean ± SD)
HIV-1KIZ001 = test: microbe, parasite or virus in culture; details: Human immunodeficiency virus 1, PBMC, read-out: EC50 (Mean ± SD)

| SMILES | EC50 (HIV-1A17) [nM] | EC50 (HIV-1RF/V82F/184V) [nM] | EC50 (HIV-1TC-1) [nM] | EC50 (pNL4-3GP41(36G)V38A,N42T) [nM] | EC50 (HIV-1WAN) [nM] | EC50 (HIV-1_4755-5) [nM] | EC50 (HIV-1IIIB) [nM] | EC50 (HIV-1KIZ001) [nM] |
| --- | --- | --- | --- | --- | --- | --- | --- | --- |
| Cc1cc(C#N)cc(C)c1Oc1nc(Nc2ccc(C#N)cc2)nc(N)c1Br [ETR, etravirine, reference compound] | 25.9 ± 17.7 | 0.21 ± 0.05 | 2.27 ± 0.95 | < 0.13 | 4.58 ± 0.89 | 3.72 ± 4.37 | 5.71 ± 1.31 | 3.58 ± 0.62 |
| Cc1cc(C#N)cc(C)c1Oc1nc(NC2CCN(Cc3ccc(S(N)(=O)=O)cc3)CC2)nc2ccsc12 [K-5a2] | 195 ± 78.7 | 3.87 ± 0.98 | 2.25 ± 0.87 | 2.55 ± 1.44 | 5.56 ± 2.16 | 6.92 ± 7.47 | 6.11 ± 0.57 | 2.16 ± 0.24 |
